Some of the results follow.
Tests used:
Assay in all cases: glycan array binding signal (z-score within array); higher = stronger binding
Conditions in all cases: glycan notation: IUPAC condensed, linker removed
[1] = molecular target: GlcNAc(b1-3)Gal(b1-4)Glc
Summary of the method: (§1)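 Columns mapping to the same glycan were averaged after glycan names were converted to IUPAC-condensed notation. The data come from 3228 arrays in the Consortium for Functional Glycomics database, limited to those with an available protein sequence. Binding is reported as a within-array Z-score averaged across arrays of one protein sequence and across linkers.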

[2] = molecular target: GlcNAc(b1-3)Gal(b1-4)GlcNAc
Summary of the method: as §1

[3] = molecular target: GlcNAc(b1-3)Gal(b1-4)GlcNAc(b1-2)Man(a1-3)[GlcNAc(b1-3)Gal(b1-4)GlcNAc(b1-2)Man(a1-6)]Man(b1-4)GlcNAc(b1-4)GlcNAc
Summary of the method: as §1

[4] = molecular target: GlcNAc(b1-3)Gal(b1-4)GlcNAc(b1-2)Man(a1-3)[GlcNAc(b1-3)Gal(b1-4)GlcNAc(b1-2)Man(a1-6)]Man(b1-4)GlcNAc(b1-4)[Fuc(a1-6)]GlcNAc
Summary of the method: as §1

[5] = molecular target: GlcNAc(b1-3)Gal(b1-4)GlcNAc(b1-2)[GlcNAc(b1-3)Gal(b1-4)GlcNAc(b1-6)]Man(a1-6)[GlcNAc(b1-3)Gal(b1-4)GlcNAc(b1-2)Man(a1-3)]Man(b1-4)GlcNAc(b1-4)GlcNAc
Summary of the method: as §1

[6] = molecular target: GlcNAc(b1-3)Gal(b1-4)GlcNAc(b1-3)Gal(b1-4)GlcNAc
Summary of the method: as §1

[7] = molecular target: GlcNAc(b1-3)Gal(b1-4)GlcNAc(b1-3)Gal(b1-4)GlcNAc(b1-2)Man(a1-3)[GlcNAc(b1-3)Gal(b1-4)GlcNAc(b1-3)Gal(b1-4)GlcNAc(b1-2)Man(a1-6)]Man(b1-4)GlcNAc(b1-4)GlcNAc
Summary of the method: as §1

[8] = molecular target: GlcNAc(b1-3)Gal(b1-4)GlcNAc(b1-3)Gal(b1-4)GlcNAc(b1-2)Man(a1-3)[GlcNAc(b1-3)Gal(b1-4)GlcNAc(b1-3)Gal(b1-4)GlcNAc(b1-2)Man(a1-6)]Man(b1-4)GlcNAc(b1-4)[Fuc(a1-6)]GlcNAc
Summary of the method: as §1

[9] = molecular target: GlcNAc(b1-3)Gal(b1-4)GlcNAc(b1-3)Gal(b1-4)GlcNAc(b1-2)[GlcNAc(b1-3)Gal(b1-4)GlcNAc(b1-3)Gal(b1-4)GlcNAc(b1-6)]Man(a1-6)[GlcNAc(b1-3)Gal(b1-4)GlcNAc(b1-3)Gal(b1-4)GlcNAc(b1-2)Man(a1-3)]Man(b1-4)GlcNAc(b1-4)[Fuc(a1-6)]GlcNAc
Summary of the method: as §1

[10] = molecular target: GlcNAc(b1-3)Gal(b1-4)GlcNAc(b1-3)Gal(b1-4)GlcNAc(b1-3)Gal(b1-4)GlcNAc(b1-2)Man(a1-3)[GlcNAc(b1-3)Gal(b1-4)GlcNAc(b1-3)Gal(b1-4)GlcNAc(b1-3)Gal(b1-4)GlcNAc(b1-2)Man(a1-6)]Man(b1-4)GlcNAc(b1-4)GlcNAc
Summary of the method: as §1

[11] = molecular target: GlcNAc(b1-3)Gal(b1-4)GlcNAc(b1-3)Gal(b1-4)GlcNAc(b1-3)Gal(b1-4)GlcNAc(b1-2)Man(a1-3)[GlcNAc(b1-3)Gal(b1-4)GlcNAc(b1-3)Gal(b1-4)GlcNAc(b1-3)Gal(b1-4)GlcNAc(b1-2)Man(a1-6)]Man(b1-4)GlcNAc(b1-4)[Fuc(a1-6)]GlcNAc
Summary of the method: as §1

[12] = molecular target: GlcNAc(b1-3)Gal(b1-4)GlcNAc(b1-3)Gal(b1-4)GlcNAc(b1-3)Gal(b1-4)GlcNAc(b1-2)[GlcNAc(b1-3)Gal(b1-4)GlcNAc(b1-3)Gal(b1-4)GlcNAc(b1-3)Gal(b1-4)GlcNAc(b1-6)]Man(a1-6)[GlcNAc(b1-3)Gal(b1-4)GlcNAc(b1-3)Gal(b1-4)GlcNAc(b1-3)Gal(b1-4)GlcNAc(b1-2)Man(a1-3)]Man(b1-4)GlcNAc(b1-4)[Fuc(a1-6)]GlcNAc
Summary of the method: as §1

[13] = molecular target: GlcNAc(b1-3)Gal(b1-4)GlcNAc(b1-3)Gal(b1-4)GlcNAc(b1-3)Gal(b1-4)GlcNAc(b1-3)Gal(b1-4)GlcNAc(b1-2)Man(a1-3)[GlcNAc(b1-3)Gal(b1-4)GlcNAc(b1-3)Gal(b1-4)GlcNAc(b1-3)Gal(b1-4)GlcNAc(b1-3)Gal(b1-4)GlcNAc(b1-2)Man(a1-6)]Man(b1-4)GlcNAc(b1-4)GlcNAc
Summary of the method: as §1

[14] = molecular target: GlcNAc(b1-3)Gal(b1-4)GlcNAc(b1-3)Gal(b1-4)GlcNAc(b1-3)Gal(b1-4)GlcNAc(b1-3)Gal(b1-4)GlcNAc(b1-2)Man(a1-3)[GlcNAc(b1-3)Gal(b1-4)GlcNAc(b1-3)Gal(b1-4)GlcNAc(b1-3)Gal(b1-4)GlcNAc(b1-3)Gal(b1-4)GlcNAc(b1-2)Man(a1-6)]Man(b1-4)GlcNAc(b1-4)[Fuc(a1-6)]GlcNAc
Summary of the method: as §1

[15] = molecular target: GlcNAc(b1-3)Gal(b1-4)GlcNAc(b1-3)Gal(b1-4)GlcNAc(b1-3)Gal(b1-4)GlcNAc(b1-3)Gal(b1-4)GlcNAc(b1-2)[GlcNAc(b1-3)Gal(b1-4)GlcNAc(b1-3)Gal(b1-4)GlcNAc(b1-3)Gal(b1-4)GlcNAc(b1-3)Gal(b1-4)GlcNAc(b1-6)]Man(a1-6)[GlcNAc(b1-3)Gal(b1-4)GlcNAc(b1-3)Gal(b1-4)GlcNAc(b1-3)Gal(b1-4)GlcNAc(b1-3)Gal(b1-4)GlcNAc(b1-2)Man(a1-3)]Man(b1-4)GlcNAc(b1-4)[Fuc(a1-6)]GlcNAc
Summary of the method: as §1

[16] = molecular target: GlcNAc(b1-3)Gal(b1-4)GlcNAc(b1-3)Gal(b1-4)GlcNAc(b1-3)GalNAc
Summary of the method: as §1

[17] = molecular target: GlcNAc(b1-3)Gal(b1-4)GlcNAc(b1-3)GalNAc
Summary of the method: as §1

[18] = molecular target: GlcNAc(b1-3)Gal(b1-4)GlcNAc(b1-3)[GlcNAc(b1-3)Gal(b1-4)GlcNAc(b1-3)]GalNAc
Summary of the method: as §1

[19] = molecular target: GlcNAc(b1-3)Gal(b1-4)GlcNAc(b1-6)[Gal(b1-3)]GalNAc
Summary of the method: as §1

[20] = molecular target: GlcNAc(b1-3)Gal(b1-4)GlcNAc(b1-6)[GlcNAc(b1-3)Gal(b1-3)]GalNAc
Summary of the method: as §1

[21] = molecular target: GlcNAc(b1-3)Gal(b1-4)GlcNAc(b1-6)[GlcNAc(b1-3)]Gal(b1-4)GlcNAc
Summary of the method: as §1

[22] = molecular target: GlcNAc(b1-3)GalNAc
Summary of the method: as §1

[23] = molecular target: GlcNAc(b1-3)Man
Summary of the method: as §1

[24] = molecular target: GlcNAc(b1-3)[GlcNAc(b1-4)][GlcNAc(b1-6)]GlcNAc
Summary of the method: as §1

[25] = molecular target: GlcNAc(b1-3)[GlcNAc(b1-6)]Gal(b1-4)GlcNAc
Summary of the method: as §1

[26] = molecular target: GlcNAc(b1-3)[GlcNAc(b1-6)]GalNAc
Summary of the method: as §1

[27] = molecular target: GlcNAc(b1-4)Gal(b1-4)GlcNAc
Summary of the method: as §1

[28] = molecular target: GlcNAc(b1-4)GlcNAc
Summary of the method: as §1

[29] = molecular target: GlcNAc(b1-4)GlcNAc(b1-4)GlcNAc
Summary of the method: as §1

[30] = molecular target: GlcNAc(b1-4)GlcNAc(b1-4)GlcNAc(b1-4)GlcNAc(b1-4)GlcNAc
Summary of the method: as §1

[31] = molecular target: GlcNAc(b1-4)GlcNAc(b1-4)GlcNAc(b1-4)GlcNAc(b1-4)GlcNAc(b1-4)GlcNAc
Summary of the method: as §1

[32] = molecular target: GlcNAc(b1-4)[GlcNAc(b1-6)]GalNAc
Summary of the method: as §1

[33] = molecular target: GlcNAc(b1-6)Gal(b1-4)GlcNAc
Summary of the method: as §1

[34] = molecular target: GlcNAc(b1-6)GalNAc
Summary of the method: as §1

[35] = molecular target: GlcNAc6S(b1-3)Gal(b1-4)GlcNAc
Summary of the method: as §1

[36] = molecular target: Kdn(a2-3)Gal(b1-3)GalNAc
Summary of the method: as §1

[37] = molecular target: Kdn(a2-3)Gal(b1-3)GlcNAc
Summary of the method: as §1

B1: Cohesin-marm-DC-ASGPR (protein)
chain: LDITSHHHHHHDDLDAVRIKVDTVNAKPGDTVRIPVRFSGIPSKGIANCDFVYSYDPNVLEIIEIEPGDIIVDPNPDKSFDTAVYPDRKIIVFLFAEDSGTGAYAITKDGVFATIVAKVKEGAPNGLSVIKFVEVGGFANNDLVEQKTQFFDGGVNVGDTTEPATPTTPVTTPTTTDDLDAASSKFQRDLVTLRTDFSNFTSNTLAEIQALTSQGSSLQETIASLKAEVEGHKQELQAGASELQEHNKQKAHLGRCPHTCVCPSSFVCVPVHSEILLRVQQLVQDLNKLSCQVAILKNNATTERTCCPINWVEHQGSCYWFSRSGKTWPEAERYCQLENTHLVVINSREEQNFVQAHLGSAYTWMGLSDPEGVWKWVDGTDYSSGFQNWKPGQPDDWQGHGLGGGEDCAHFHPDGRWNDDVCQRSYHWVCEAGLTQASQDSHAS
B1 was tested, and the “glycan array binding signal (z-score)” value [1] was -0.31, the “glycan array binding signal (z-score)” value [2] was -0.297 and the “glycan array binding signal (z-score)” value [3] was -0.311. The “glycan array binding signal (z-score)” value [4] was -0.259, the “glycan array binding signal (z-score)” value [5] was -0.292 and the “glycan array binding signal (z-score)” value [6] was -0.304. For the same binder, the “glycan array binding signal (z-score)” value [7] was -0.228, the “glycan array binding signal (z-score)” value [8] was -0.288 and the “glycan array binding signal (z-score)” value [9] was -0.306. For the same binder, the “glycan array binding signal (z-score)” value [10] was -0.279, the “glycan array binding signal (z-score)” value [11] was -0.266 and the “glycan array binding signal (z-score)” value [12] was -0.307. For the same binder, the “glycan array binding signal (z-score)” value [13] was -0.105, the “glycan array binding signal (z-score)” value [14] was 0.086 and the “glycan array binding signal (z-score)” value [15] was -0.306. The “glycan array binding signal (z-score)” value [16] was -0.31, the “glycan array binding signal (z-score)” value [17] was -0.306 and the “glycan array binding signal (z-score)” value [18] was -0.306. For the same binder, the “glycan array binding signal (z-score)” value [19] was -0.291, the “glycan array binding signal (z-score)” value [20] was -0.306 and the “glycan array binding signal (z-score)” value [21] was -0.309. The “glycan array binding signal (z-score)” value [22] was -0.287, the “glycan array binding signal (z-score)” value [23] was -0.289 and the “glycan array binding signal (z-score)” value [24] was -0.287. The “glycan array binding signal (z-score)” value [25] was -0.313, the “glycan array binding signal (z-score)” value [26] was -0.291 and the “glycan array binding signal (z-score)” value [27] was -0.283. The “glycan array binding signal (z-score)” value [28] was -0.284, the “glycan array binding signal (z-score)” value [29] was -0.3 and the “glycan array binding signal (z-score)” value [30] was -0.277. For the same binder, the “glycan array binding signal (z-score)” value [31] was -0.29, the “glycan array binding signal (z-score)” value [32] was -0.297 and the “glycan array binding signal (z-score)” value [33] was -0.285. The “glycan array binding signal (z-score)” value [34] was 4.74, the “glycan array binding signal (z-score)” value [35] was -0.249 and the “glycan array binding signal (z-score)” value [36] was -0.292. The “glycan array binding signal (z-score)” value [37] was -0.306.

Source: the supplement of paper PMC8728848
